Experimental data published in PubChem BioAssay AID1240 (Sanford-Burnham Center for Chemical Genomics, 2008).
Hit rate of the full screen: of about 50,000 compounds, about 800 (1.6%) showed an effect of 50% or more. The list shows a part of the results.

Biological target: Bcl-2-like protein 10 (Homo sapiens) (UniProt Q9HD36)
Test: Phenotype converters, Bcl-B/TR3 peptide binding displacement, primary biochemical FP (AID 1240);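 note: 0% = Bcl-B with tracer peptide and DMSO and 100% = tracer peptide lacking Bcl-B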
Details: GST-Bcl-B / FITC-TR3 peptide fluorescence polarization; stronger effect = higher value; compound at 3.75 mg/L

UniProt Q9HD36, sequence (Q9HD36 whole entry, looked up): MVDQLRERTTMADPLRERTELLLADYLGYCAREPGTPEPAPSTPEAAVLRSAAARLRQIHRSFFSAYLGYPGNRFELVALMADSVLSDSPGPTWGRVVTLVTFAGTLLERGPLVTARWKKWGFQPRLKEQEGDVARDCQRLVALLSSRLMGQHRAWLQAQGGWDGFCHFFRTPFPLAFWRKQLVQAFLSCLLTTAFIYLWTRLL

| Compound | displacement [%] |
| --- | --- |
| OC(CNc1ccc(F)cc1)COc1ccc(OCC(O)CNc2ccc(F)cc2)cc1 (centres undefined) | 8.5 |
| O=C(O)c1ccc(N2C(=O)CC(N3CCC(C(=O)O)CC3)C2=O)cc1 (centres undefined) | 3.9 |
| O=C(COc1ccc(Br)cc1)Nc1ccc(N2CCCCC2)c(Cl)c1 | 7.3 |
| CCNC(=O)CC1S/C(=N\N=C2/CCCc3ccccc32)NC1=O (centres undefined) | -8.7 |
| CCCCN(CCCC)C(=O)c1ccc(Cl)c([N+](=O)[O-])c1 | -4.1 |
| COc1ccc(C=Nc2ccc(Sc3ccc([N+](=O)[O-])cc3)cc2)cc1OC | -4.2 |
| Cc1ccc(C2CC(C(F)(F)F)n3nc(C(=O)Nc4c(C)n(C)n(-c5ccccc5)c4=O)c(Cl)c3N2)cc1 (centres undefined) | 1.1 |
| Cc1cccc(/C=C2/SC(=S)N(Cc3ccccc3)C2=O)c1 | 13.4 |
| O=S(=O)(Cc1ccccc1)NCC1CCCO1 (centres undefined) | 5.8 |
| O=C(N/N=C/c1ccccc1F)c1cc(Br)ccc1O | 9.1 |
| Cc1ccc(NC(=S)N/N=C2\CC(=O)CC(C)(C)C2)cc1 | 7.7 |
| CCOc1ccc(N(CC(=O)NCCOC)S(=O)(=O)c2ccc(Br)cc2)cc1 | 2.5 |
| Cc1cc(NCCN2CCOCC2)n2c(nc3ccccc32)c1C#N | -13.4 |
| CCCN=C(CCC)C1=C(O)C(C(=O)OC)C(C)(C)CC1=O (centres undefined) | 7.2 |
| CCOc1ccc(/C=C(/C#N)C(=O)Nc2cccc(Br)c2)cc1OCC | 10.4 |
| CCC(=O)N1CCN(c2ccc([N+](=O)[O-])cc2)CC1 | 13.4 |
| CC(=O)Nc1ccc(I)cc1C | -5 |
| NC(=O)SCC(=O)Nc1cccc(O)c1 | 5.1 |
| COc1cccc(NC(=O)CCCN2C(=O)c3cccc4cccc(c34)C2=O)c1 | 6.9 |
| O=C(N/N=C/c1ccc(-c2ccccc2[N+](=O)[O-])o1)Nc1ccccc1 | 17.3 |
| O=C(NCc1ccccc1)C(=O)Nc1cccc(Cl)c1 | 10.3 |
| O=c1nc(N/N=C/c2c(O)ccc3ccccc23)cn[nH]1 | 44 |

| Compound | displacement [%] |
| --- | --- |
| COc1ccccc1N1CCN(/N=C(\C)c2ccncc2)CC1 | 14.9 |
| COc1cc(C(=O)Nc2ncc(Cc3cccc4ccccc34)s2)cc(OC)c1OC | 28.8 |
| NS(=O)(=O)c1cccc(NC(=O)c2cc(I)ccc2Cl)c1 | -1.9 |
| CC(=O)CC1(O)C(=O)N(Cc2ccccc2)c2ccccc21 (centres undefined) | 13.2 |
| CN(C)c1ccc(C2CC(c3ccc(Br)cc3)=NN2C(=O)CCC(=O)O)cc1 (centres undefined) | 10.5 |
| Cc1cc(OCCCN2CCOCC2)ccc1Cl | -3.1 |
| CC1=C(C(=O)Nc2ccc(C)cc2)C(c2ccc3c4c(cccc24)CC3)NC(=S)N1 (centres undefined) | 7.2 |
| COc1ccc(/C=C/C(=O)NCCN2CCOCC2)cc1OC | -4.5 |
| Cc1ccccc1OCC(=O)N1CCN(c2ccccn2)CC1 | 4.6 |
| CCN(C(C)=O)C1=C(N2CCOCC2)C(=O)c2ccccc2C1=O | 3.2 |
| COc1ccc(C2CC(=O)C3=C(C2)Nc2ccccc2NC3c2ccc(SC)cc2)cc1 (centres undefined) | 3.5 |
| CCOc1ccc(CNc2cccc(C)c2)cc1 | 11 |
| Cc1n[nH]c(C)c1CCCCCOc1ccc(F)cc1 | 11.1 |
| COc1ccc(N(CC(=O)Nc2ccc(Oc3ccccc3)cc2)S(C)(=O)=O)cc1Cl | 6.2 |
| Cc1ccccc1-n1c(C)cc(C=O)c1C | 14.7 |
| CN1C(=O)/C(=C\c2cc(Cl)ccc2OCc2ccc(F)cc2)SC1=S | 3.5 |
| COc1cccc(OCCCn2ccnc2)c1 | -14.2 |
| O=C1/C(=C/c2ccc3c(c2)OCO3)SC(=S)N1c1ccc(F)cc1 | 11.8 |
| Cc1ccsc1/C=C1\SC(=N)N(c2ccc3c(c2)OCO3)C1=O | 27.3 |
| O=C(c1ccc(F)cc1)N1CCN(Cc2ccc(Cl)cc2)CC1 | 7.7 |
| COc1cc2ccccc2cc1C(=O)Nc1ccc(Cl)c(NC(=O)c2ccccc2)c1 | 8.3 |
| Cc1ccc(S(=O)(=O)/N=C2/C=C(N3CCOCC3)C(=O)c3ccccc32)cc1 | 5.8 |

| Compound | displacement [%] |
| --- | --- |
| O=C1CSC2(C(=O)Nc3ccccc32)N1c1cccc(Br)c1 (centres undefined) | -2.3 |
| O=C(COc1ccc(/C=N/NS(=O)(=O)c2ccccc2)cc1)Nc1ccc(F)cc1 | 4.5 |
| O=C1NC(=Nc2cccnc2)S/C1=C\c1ccc(Br)cc1 | 12.1 |
| c1cc2c(cc1-c1nnc(-c3ccc4c(c3)OCO4)o1)OCO2 | 6.4 |
| Cc1ccc(-c2nc3cc(Cl)cc(Cl)c3o2)cc1N | 21.8 |
| COc1ccc(-n2c(NN=C(C)C)nc3sc4c(c3c2=O)CC(C)(C)OC4)cc1 | -2.5 |
| O=c1/c(=C\c2ccccc2)sc2nc(-c3ccc(Cl)cc3Cl)nn12 | 8 |
| Cn1c(Cn2c(C(F)(F)F)nc3ccccc32)nc2ccccc21 | -5.2 |
| COc1cccc(NC(=O)CCCOc2ccc(Cl)cc2Cl)c1 | -7.4 |
| COC(=O)C1C(=O)CC(C)(O)C(C(=O)OC)C1c1ccc(Br)cc1 (centres undefined) | 5.5 |
| COc1cccc(NC(=O)COc2ccc(C(C)(C)C)cc2)c1 | -7.2 |
| CCCCCCN1C(=O)/C(=C2\SC(=O)NC2=O)c2ccccc21 | 5.4 |
| O=C(Nc1cccc(Br)c1)C1C2CCC3C(CCC21)C3(Cl)Cl (centres undefined) | -12.6 |
| C=CCc1cccc2cc(C(=O)Nc3cccc(C(=O)O)c3)c(=O)oc12 | -6 |
| COc1ccc(OC)c(/C=N\NC(=O)c2c(C)nc3cc(C)ccn23)c1 | -0.4 |
| CCCC(=O)C1=C(O)C(C(=O)OC)C(C)(C)CC1=Nc1cccc2ccccc12 (centres undefined) | 6.1 |
| COc1cc(C2NC(=O)NC(C)=C2C(=O)OCCC#N)cc(OC)c1OC (centres undefined) | 0.6 |
| Cc1cc2c(cc1C)NC(CC(=O)Nc1ccc([N+](=O)[O-])cc1)C(=O)N2 (centres undefined) | -8.9 |
| O=C(Nc1c(C(=O)N2CCC(Cc3ccccc3)CC2)cnn1-c1ccccc1)c1ccccc1F | 88.9 |
| O=[N+]([O-])c1ccccc1Nc1nnc(-c2ccccc2)c(-c2ccccc2)n1 | 5.2 |
| COc1ccc(N(CC(=O)Nc2ccc3ccccc3c2)S(C)(=O)=O)cc1 | 0.3 |
| CN(C)c1ccc(/C=c2/sc3nc(-c4ccc(Cl)cc4Cl)nn3c2=O)cc1 | -7.4 |

| Compound | displacement [%] |
| --- | --- |
| COc1cc(C2/C(=C(\O)c3ccccc3)C(=O)C(=O)N2c2cccnc2)ccc1O (centres undefined) | -0.4 |
| O=C(O)CCCN1C(=O)C(=O)/C(=C(/O)c2ccccc2)C1c1cccc(F)c1 (centres undefined) | -6.6 |
| CCCn1c(C(O)c2cc(OC)c(OC)c(OC)c2)nc2ccccc21 (centres undefined) | -3.5 |
| COC(=O)Cc1nc2sc3c(c2c(=O)n1Cc1ccccc1)CCC(C(C)(C)C)C3 (centres undefined) | -7 |
| CCn1c(SCC(=O)N/N=C/c2cccn2C)nnc1-c1ccc(OC)cc1 | 10 |
| CC1=NNC(=O)C1CC(=O)N/N=C(/C)c1cccc([N+](=O)[O-])c1 (centres undefined) | -4.6 |
| CCOC(=O)C1=CN(c2ccc(OCC)cc2)C=C(C(=O)OCC)C1c1ccc(F)cc1 | 5.3 |
| Cc1ccc(/C=C/C(=O)Nc2ccc(Cl)cc2Cl)o1 | 9.6 |
| Cc1ccc(NC(=O)CSC(N)=O)c(C)c1 | -2.2 |
| O=C1C(Cl)=C(Nc2cccc([N+](=O)[O-])c2)c2c(Cl)c(Cl)c(Cl)c(Cl)c21 | 1.8 |
| CN(C1=NC(=O)/C(=C\c2ccc(Cl)cc2)S1)c1ccc(O)cc1 | 7.4 |
| CCCCOc1ccc(C(=O)N2CCC(Cc3ccccc3)CC2)cc1 | -4.5 |
| O=C(c1cccs1)N(CCN(C(=O)c1cccs1)c1ccccc1)c1ccccc1 | -5.5 |
| O=C1NC(=S)N/C1=C/c1ccc(-c2cccc(Br)c2)o1 | 15.5 |
| COc1ccc(/C=C2/SC(=O)N(CCC(=O)Nc3ccc(S(N)(=O)=O)cc3)C2=O)cc1 | 4 |
| COc1ccc(OC)c(/C=C2\SC(=S)N(c3ccccc3C)C2=O)c1 | 158 |
| CC1=C(C(=O)OCCc2ccccc2)C(c2ccc([N+](=O)[O-])cc2)CC(=O)N1 (centres undefined) | -8 |
| Cc1c(NCc2ccccc2)[nH]c(=O)[nH]c1=O | -5.4 |
| Cc1cc(-n2ccnc2)n2c(nc3ccccc32)c1C#N | 33.3 |
| O=C(NCC1CCCO1)/C(=C/c1ccc(-c2ccccc2Cl)o1)NC(=O)c1ccccc1 (centres undefined) | 19.7 |
| COc1ccccc1N1CCN(C(=O)C2C3C=CC(C3)C2C(=O)O)CC1 (centres undefined) | 1.5 |
| Cc1ccsc1/C=C1\SC(=S)N(c2ccccc2)C1=O | 126 |

| Compound | displacement [%] |
| --- | --- |
| CCOC(=O)c1ccccc1NC(=O)C1CC(=O)N(c2ccc(CC)cc2)C1 (centres undefined) | 1.9 |
| Cc1ccc(OCC(=O)NNC(=O)Cc2ccc(Cl)cc2)c(C)c1 | 13.1 |
| CCOC(=O)c1c(NC(=O)COc2c(C)cc(C)cc2C)sc(C(=O)Nc2ccccc2)c1C | 13.1 |
| Cc1ccc2nsnc2c1NC(=O)c1ccc(Br)o1 | 15.6 |
| CC(C)CNC(=O)COc1ccc(Br)cc1 | -3.8 |
| Cc1cccc(C(=O)N2CCN(Cc3ccccc3)CC2)c1 | -3.4 |
| CN(C)c1ccc(/C=C2\SC(N3CCN(C4=NC(=O)/C(=C\c5ccc(N(C)C)cc5)S4)CC3)=NC2=O)cc1 | -12.9 |
| OC1(C#CCN(C2CCCCC2)C2CCCCC2)CCCCC1 | 13.9 |
| Cc1sc2nc(SCC(=O)N3CCCCC3)[nH]c(=O)c2c1C | -0.3 |
| COc1ccccc1N1CCN(/N=C/c2cc([N+](=O)[O-])ccc2Cl)CC1 | 6.8 |
| COc1cccc(/C=C2\SC(N)=NC2=O)c1OC | -7.3 |
| COc1ccc(N2C(=O)CC(N(CCc3ccc(OC)c(OC)c3)C(C)=O)C2=O)cc1 (centres undefined) | -5.2 |
| CCOc1cc(C(=O)Nc2cccc(F)c2)cc(OCC)c1OCC | -12.8 |
| Cc1cc(C)c(S(=O)(=O)Nc2cccc([N+](=O)[O-])c2C)c(C)c1 | 13.6 |
| O=C(NCc1ccncc1)C(=O)Nc1nc(C23CC4CC(CC(C4)C2)C3)cs1 | -18.6 |
| COC(=O)CN(c1cccc(C)c1)S(C)(=O)=O | 10.5 |
| COCCN1C(=O)C(=O)/C(=C(/O)c2ccccc2)C1c1ccc(O)c(OC)c1 (centres undefined) | -10.3 |
| COc1ccccc1CNC(=O)Cc1ccc(Br)cc1 | 17.2 |
| CCCN1C/C(=C\c2ccccc2)C(=O)/C(=C/c2ccccc2)C1 | 18.4 |
| Cc1ccc(N2C(=O)C3C4C=CC(O4)C3C2=O)c(C)c1 (centres undefined) | -5.8 |
| Cc1cccc(C)c1OCC(=O)Nc1ccc(C(=O)Nc2ccccc2C(=O)O)cc1 | 20 |
